The other results are listed elsewhere or left out.

The target of the assay is T1, MBP-FoxP1dN (Mus musculus, UniProt P58462 326-579).
T1 sequence: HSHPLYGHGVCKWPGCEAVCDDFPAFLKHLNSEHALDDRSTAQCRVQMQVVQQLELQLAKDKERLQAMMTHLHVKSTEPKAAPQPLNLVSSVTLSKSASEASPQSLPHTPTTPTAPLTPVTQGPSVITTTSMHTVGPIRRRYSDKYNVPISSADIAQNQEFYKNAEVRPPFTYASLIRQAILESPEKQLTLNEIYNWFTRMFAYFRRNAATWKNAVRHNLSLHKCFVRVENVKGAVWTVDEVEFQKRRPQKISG
Put plainly: PD-seq (MBP pull-down with sequencing); 20 mM Tris-HCl pH 7.5, 100 mM NaCl, 1.5 mM MgCl2, 0.4 uM protein, 0.1 uM dsDNA library, 30 min, room temperature, amylose pull-down; high values mean tight binding. As to conditions: protein: recombinant; tags: His6-MBP; chain copies: 2; dsDNA, one strand shown. Put shortly: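 Binding is the reads-per-million enrichment of pull-down relative to input, pooled across replicates. For this, 0.4 µM His6-MBP-tagged mouse FoxP3 or FoxP1 fragment lacking the N-terminus, made in E. coli, was incubated with 0.1 µM Klenow-filled double-stranded degenerate DNA library for 30 min at room temperature in Tris pH 7.5 buffer with NaCl and MgCl2. Complexes bound to amylose resin were washed three times before proteinase K released the DNA for PCR barcoding and Illumina sequencing.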
As to “GATGATTGTTCTCCCAGCTGATGAATTCCAGTCTTCGAGTAAACAAATTTTCCTAATCTTTCTGTTCAAGCGCCATCTAC”, the binding signal was 0.756 RPM ratio (pull-down/input). For “GATGATTGTTCTCCCAGCTGATGAATTTTGTGGCTCGAGTAAACAAATTTTCCTAATCTTTCTGTTCAAGCGCCATCTAC” the value was 0.981 RPM ratio (pull-down/input); for “GATGATTGTTCTCCCAGCTGATGAATTACCGAACTCGAGTAAACAAATTTTCCTAATCTTTCTGTTCAAGCGCCATCTAC”, 0.921 RPM ratio (pull-down/input); for “GATGATTGTTCTCCCAGCTGATGAATTAAGATCGTCGAGTAAACAAATTTTCCTAATCTTTCTGTTCAAGCGCCATCTAC”, 0.881 RPM ratio (pull-down/input). As to “GATGATTGTTCTCCCAGCTGATGAATTCTACGTGTCGAGTAAACAAATTTTCCTAATCTTTCTGTTCAAGCGCCATCTAC”, the binding signal was 0.836 RPM ratio (pull-down/input).

With “GATGATTGTTCTCCCAGCTGATGAATTCTCGGTATCGAGTAAACAAATTTTCCTAATCTTTCTGTTCAAGCGCCATCTAC”, the binding signal was 0.843 RPM ratio (pull-down/input). As to “GATGATTGTTCTCCCAGCTGATGAATTACCATGTTCGAGTAAACAAATTTTCCTAATCTTTCTGTTCAAGCGCCATCTAC”, the binding signal was 1.02 RPM ratio (pull-down/input). For the sequence “GATGATTGTTCTCCCAGCTGATGAATTCGGCGGGTCGAGTAAACAAATTTTCCTAATCTTTCTGTTCAAGCGCCATCTAC”, the binding signal is 0.749 RPM ratio (pull-down/input).

In the case of “GATGATTGTTCTCCCAGCTGATGAATTGTGGGTATCGAGTAAACAAATTTTCCTAATCTTTCTGTTCAAGCGCCATCTAC”, the binding signal is 1.04 RPM ratio (pull-down/input). With “GATGATTGTTCTCCCAGCTGATGAATTTTACGGTTCGAGTAAACAAATTTTCCTAATCTTTCTGTTCAAGCGCCATCTAC” the figure was 0.917 RPM ratio (pull-down/input); with “GATGATTGTTCTCCCAGCTGATGAATTTCGTCCTTCGAGTAAACAAATTTTCCTAATCTTTCTGTTCAAGCGCCATCTAC”, 0.84 RPM ratio (pull-down/input); with “GATGATTGTTCTCCCAGCTGATGAATTTCTAAGTTCGAGTAAACAAATTTTCCTAATCTTTCTGTTCAAGCGCCATCTAC”, 0.892 RPM ratio (pull-down/input). With “GATGATTGTTCTCCCAGCTGATGAATTTTAGCTGTCGAGTAAACAAATTTTCCTAATCTTTCTGTTCAAGCGCCATCTAC” the figure was 0.941 RPM ratio (pull-down/input); with “GATGATTGTTCTCCCAGCTGATGAATTTGTCCCATCGAGTAAACAAATTTTCCTAATCTTTCTGTTCAAGCGCCATCTAC”, 1.05 RPM ratio (pull-down/input). “GATGATTGTTCTCCCAGCTGATGAATTAATCACGTCGAGTAAACAAATTTTCCTAATCTTTCTGTTCAAGCGCCATCTAC”: the binding signal was 1.03 RPM ratio (pull-down/input).

Consider “GATGATTGTTCTCCCAGCTGATGAATTCGCCGTATCGAGTAAACAAATTTTCCTAATCTTTCTGTTCAAGCGCCATCTAC”, for which the binding signal was 0.932 RPM ratio (pull-down/input).

Take “GATGATTGTTCTCCCAGCTGATGAATTCCTGTTGTCGAGTAAACAAATTTTCCTAATCTTTCTGTTCAAGCGCCATCTAC”: the binding signal is 2.34 RPM ratio (pull-down/input). With “GATGATTGTTCTCCCAGCTGATGAATTTGAATGTTCGAGTAAACAAATTTTCCTAATCTTTCTGTTCAAGCGCCATCTAC” the figure was 0.899 RPM ratio (pull-down/input); with “GATGATTGTTCTCCCAGCTGATGAATTGTGGGTCTCGAGTAAACAAATTTTCCTAATCTTTCTGTTCAAGCGCCATCTAC”, 0.967 RPM ratio (pull-down/input). In the case of “GATGATTGTTCTCCCAGCTGATGAATTGCTAGAGTCGAGTAAACAAATTTTCCTAATCTTTCTGTTCAAGCGCCATCTAC”, the binding signal is 0.985 RPM ratio (pull-down/input). Turning to “GATGATTGTTCTCCCAGCTGATGAATTCTATGCCTCGAGTAAACAAATTTTCCTAATCTTTCTGTTCAAGCGCCATCTAC”, the binding signal was 0.89 RPM ratio (pull-down/input). With “GATGATTGTTCTCCCAGCTGATGAATTACCGATGTCGAGTAAACAAATTTTCCTAATCTTTCTGTTCAAGCGCCATCTAC” the figure was 1.08 RPM ratio (pull-down/input); with “GATGATTGTTCTCCCAGCTGATGAATTAGCTACGTCGAGTAAACAAATTTTCCTAATCTTTCTGTTCAAGCGCCATCTAC”, 0.902 RPM ratio (pull-down/input). Regarding “GATGATTGTTCTCCCAGCTGATGAATTACTGCTCTCGAGTAAACAAATTTTCCTAATCTTTCTGTTCAAGCGCCATCTAC”, the binding signal was 0.948 RPM ratio (pull-down/input). In the case of “GATGATTGTTCTCCCAGCTGATGAATTGCACACATCGAGTAAACAAATTTTCCTAATCTTTCTGTTCAAGCGCCATCTAC”, the binding signal was 1.31 RPM ratio (pull-down/input).

Consider “GATGATTGTTCTCCCAGCTGATGAATTATGCGTATCGAGTAAACAAATTTTCCTAATCTTTCTGTTCAAGCGCCATCTAC”, for which the binding signal was 1.13 RPM ratio (pull-down/input).

For “GATGATTGTTCTCCCAGCTGATGAATTTCGATGCTCGAGTAAACAAATTTTCCTAATCTTTCTGTTCAAGCGCCATCTAC”, the binding signal was 0.936 RPM ratio (pull-down/input). “GATGATTGTTCTCCCAGCTGATGAATTCCACATATCGAGTAAACAAATTTTCCTAATCTTTCTGTTCAAGCGCCATCTAC”: the binding signal was 0.973 RPM ratio (pull-down/input).

As to “GATGATTGTTCTCCCAGCTGATGAATTCCGCTCTTCGAGTAAACAAATTTTCCTAATCTTTCTGTTCAAGCGCCATCTAC”, the binding signal was 0.82 RPM ratio (pull-down/input). With “GATGATTGTTCTCCCAGCTGATGAATTGCCTAACTCGAGTAAACAAATTTTCCTAATCTTTCTGTTCAAGCGCCATCTAC” the figure was 0.992 RPM ratio (pull-down/input); with “GATGATTGTTCTCCCAGCTGATGAATTCCCTAATTCGAGTAAACAAATTTTCCTAATCTTTCTGTTCAAGCGCCATCTAC”, 0.927 RPM ratio (pull-down/input).

The values above are taken from paper PMC12820563, “FoxP3 forms a head-to-head dimer in vivo and stabilizes its multimerization on adjacent microsatellites”.
